In the supplement of paper PMC12632987:
Over roughly 4,500 sequences, “median log2 fold change of GCK-ALFA target abundance (FLAG IP / Myc IP barcode read proportion)” has its median near 0.078; the lowest 2% begin near -0.6. The list shows a part of the results.

B1: GBRAP_74_6503 (protein)
chain: QEEVLERAKNASTAEEVIELLNYAVENIDKLDQETLDAIANRAAEFINKLMAEGKYEELKALVEAAEKLLVALPGERLNHATAALIAAVLAAEKALAAHA
B2: GBRAP_52_6249 (protein)
chain: MAARRRAAAQEVLELVNAGDLEGARALLREIAATWDEEELEAFIDEFAALARTQPAEQLEKVWLAAELAEEVLEEEGRSEVLVDLLRARVAAAIVERLQA
B3: GBRAP_90_7012 (protein)
chain: SATEELVERLKHEKEVVLEEMDLGVVSAKDDEELEKAMEILDKYNAEAATAILAVDELEPIIGKERAEKYKKKIEEAGNDKEKIKELTKEAFEEAIEIAK
B4: GBRAP_52_6092 (protein)
chain: MEEELEKMAEEIFNALKAGDLEKVTELLKKLVEEKSDEEVLKTIELTAELIAKLSPEEREKALDIFLEALDRVAEETGKEELMDDAAARIAAIAYEAELK
B5: GBRAP_52_6255 (protein)
chain: MRERARAVVEEIYALVRAGDLEAARALAERFVRESNEEELELFVDEFRALVLAADPADLAALETAVDILSEALEKAGRPEELVSLLEAEGYAAIYELEQR
B6: GBRAP_128_3257 (protein)
chain: MNEEIVEKAEKFVEKLKNSNPEEQKKIAEEFAEYLISVSDEEAEQAIDVVESRLKELTAEQLEILADVLRKHLPKMSPEKANLAAGLLVDALNEAEEKEE
B7: GBRAP_125_2981 (protein)
chain: PTEEELEALRRLARALGLDEEEAEELAELARAHSLRGALYALLRALGEEEVAELVEQLTEEEVARVLAAVDAYLKAHPDATPEEVIALLRELLEAELAKR
B8: GBRAP_125_2997 (protein)
chain: SEEKLAEALALILRALGYSEDDIEEAVEIAKKHGIKQTLIAIALAEGAEELAELLEQLTEEEAAEIALKVAEELKENPELTKEEVLELMLELAKEALAKR
B9: GBRAP_184_5286 (protein)
chain: AVRHVEIVAETAEEAIAQVRAAAAEARAAGERLDLTLLLRDADIEGIKALLALLAELRAEGVIASATLGIERELTEEEIDEVLEAADAAGVRVVLAISDE
B10: GBRAP_150_3886 (protein)
chain: DLETALTIASSALDILEATIEDGPKLLEHALKLTKALVDEVKDFSEELQKLAKEALKKIEEAIKLVKAGGKPEEIKKLLEEAAKLLEELEKLLEKKIEEE
B11: GBRAP_14_3835 (protein)
chain: MELIREILEEAARRIAEELSELAGLDLEEVLERLREAVEEALKHYKETGNLEEAFDLYEKLVVETVEELLADKPEELQEEAKAIARVEVGEAILEYEEKK
B12: GBRAP_78_6592 (protein)
chain: AIEEAVDALLEATNEAMTLLAKEPSEFAQDILGELIDETTAIYEALEEENDKEKIKKEAEELKATLEKALKHADKFSPETVAAIKAALKEAEALIKLLDE
B13: GBRAP_128_3545 (protein)
chain: SLEEARALAREAMERIKASDVETAREITEELLEKMKTWSLEEVEAAVEELLERLPELSAEKLEAVADAIEEQRGKFSPEVQELLADLQVEALNLAEEQEE
B14: GBRAP_52_6004 (protein)
chain: MEERLRRLAREILERTLAGDWEGARALLREAAETLSLEELRLLAEKIAELIRERGPEDPERYVRLADLVAEVLEEAGVPEEEVLLITGIIEAGIAQAEAA
B15: GBRAP_184_5020 (protein)
chain: MVLEEVIRVENVEEARAKMAEVAERAAAQKADLILTVEIANPTREIVEAIMDELGRIMAEGKVSRLTVGIDAELSEELVDLAVEKADEAGVNLVVALSEE
B16: GBRAP_160_4082 (protein)
chain: SEAYEKLIKEIEEIFEEALEMMEDVTREEAVAIALVALGEVALLIEEEEELSEEDKEKLLKIVDEAEKEIRAAKDATVEEIKALLREHKERLVEEVKKLD
B17: GBRAP_26_5499 (protein)
chain: MEEALDKALERVHAALDELLSPELARLAKAEVDTEFEELEEEIEKNKNDMEKIKKAIEEMLEEILEALRLLGVPEETLEKLEKRFKEIAKELIEELEKLM
B18: GBRAP_153_3952 (protein)
chain: SAEREARIAEAVALARAAEAAGGDPALIAAAAALLATLDEEELEEVGERIRGLSPELIGRLVLTALTEAGLSAEGALALASKLDEEQELAVLDAIVEAAK
B19: GBRAP_83_6978 (protein)
chain: AEEIVVAAPADRIEEAVEIAIDLHKEEGYDVTLEILTTPEQLDKVLEAVERLIKEIKDIEIEVYIEGGTAEQAAALEARLKAIAAAAGANPKITVHLDEP

What follows are binders tested against GABARAP, O95166 (assay: median log2 fold change of GCK-ALFA target abundance (FLAG IP / Myc IP barcode read proportion) (log2 ratio); each designed protein is fused to an ALFA-tag nanobody in HEK293 cells to bring the named protein to FLAG-tagged glucokinase (GCK); Myc marks an untargeted standard; higher = target protein stabilised (more abundant)). Conditions: target protein: 3xFLAG-MCP-GCK-ALFA reporter; HEK293 landing pad (RPLP).
In short: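 Sequencing of reverse-transcribed, amplified circular RNA barcodes from anti-FLAG and anti-Myc immunoprecipitates provided the readout for an ALFA-nanobody-fused binder library recombined into HEK293 landing-pad cells. Those cells were induced with 2 μg mL^−1 doxycycline, transfected with a plasmid expressing a FLAG-tagged target and a Myc-tagged standard, and lysed after 48 h. Target abundance is the per-binder median log2 ratio of FLAG to Myc barcode read proportions. Only barcodes at a proportion of ≥10^−7 in both replicates and binders with ≥3 barcodes per replicate were kept, with a 10^−6 pseudocount added before the two replicates were pooled.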

Chain of GABARAP, O95166 (O95166 whole entry, the tested form may be a part): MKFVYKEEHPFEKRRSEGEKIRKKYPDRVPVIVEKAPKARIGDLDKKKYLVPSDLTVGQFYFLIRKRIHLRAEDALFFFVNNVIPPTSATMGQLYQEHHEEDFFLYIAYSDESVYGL

Binder | median log2 fold change
B1 | 0.165
B2 | -0.323
B3 | 0.148
B4 | 0.106
B5 | -0.0883
B6 | 0.216
B7 | -0.142
B8 | -0.0754
B9 | 0.0492
B10 | 0.00752
B11 | -0.325
B12 | 0.0587
B13 | 0.103
B14 | -0.375
B15 | 0.175
B16 | -0.223
B17 | 0.18
B18 | 0.0975
B19 | 0.104
